Values joined by “and” are separate entries in the source; they are usually repeats but may differ in a detail not shown here. Equal values may be shown once. Hit rate of the full screen: of about 110,000 compounds, about 230 (0.21%) showed an effect of 50% or more. The list shows a part of the results.
Target: DPAP1 (Plasmodium falciparum, UniProt Q8IIJ9)
Experiment: primary screen, percent inhibition; read by cleavage of a fluorogenic dipeptide substrate; higher = more effect of the substance
Design: species or system P. falciparum D10 trophozoite lysates; single well
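Further: 30 min substrate incubation versus DMSO and 10 µM JCP410 controls.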

DPAP1, sequence (Q8IIJ9 whole entry, looked up): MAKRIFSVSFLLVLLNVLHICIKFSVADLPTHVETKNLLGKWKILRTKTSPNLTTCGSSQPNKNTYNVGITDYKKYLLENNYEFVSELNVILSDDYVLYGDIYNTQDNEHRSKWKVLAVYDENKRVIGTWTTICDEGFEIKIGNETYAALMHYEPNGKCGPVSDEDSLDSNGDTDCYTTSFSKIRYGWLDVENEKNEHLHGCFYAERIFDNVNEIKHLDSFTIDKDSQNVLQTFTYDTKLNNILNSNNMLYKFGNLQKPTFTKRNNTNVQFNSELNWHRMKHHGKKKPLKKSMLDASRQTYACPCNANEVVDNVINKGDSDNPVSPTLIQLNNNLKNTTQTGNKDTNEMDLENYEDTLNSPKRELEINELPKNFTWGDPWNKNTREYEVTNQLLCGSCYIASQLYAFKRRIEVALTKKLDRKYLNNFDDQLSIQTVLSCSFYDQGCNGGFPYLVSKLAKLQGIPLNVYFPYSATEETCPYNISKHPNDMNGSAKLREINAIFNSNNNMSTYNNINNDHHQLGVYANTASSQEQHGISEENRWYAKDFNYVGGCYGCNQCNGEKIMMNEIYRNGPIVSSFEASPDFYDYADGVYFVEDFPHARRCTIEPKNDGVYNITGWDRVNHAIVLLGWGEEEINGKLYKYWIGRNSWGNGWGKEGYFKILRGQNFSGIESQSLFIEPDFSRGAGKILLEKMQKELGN

Row | SMILES | % Inhibition @ 10 uM
1 | COc1cc(/C=C2/C(=N)N3C(C)=CSC3=NC2=O)ccc1OCc1cc(=O)n2nc(C)sc2n1 | -3.95%
2 | Cc1cc(=O)n(CC(=O)NC2CCCCC2)c2c1c(C)nn2-c1cccc(F)c1 | -3.6%
3 | O=S(=O)(c1ccccc1)N1CCC2(Cl)CCCCC2C1c1ccccc1 (stereo not shown) | -3.53%
4 | CC1CCN(C(=O)c2nn(C)c3c2CSc2ccccc2-3)CC1 | 0.00665%
5 | O=C(O)c1ccc(NC(=O)c2cccc3c2-c2ccccc2C3=O)cc1 | 0.219%
6 | CCOC(=O)c1c(CSc2ccccc2)n(C)c2ccc(O)c(CN3CCN(C)CC3)c12 | 9.47%
7 | O=C(Nc1cc(Cl)c(Cl)cc1Cl)c1ccccc1F | 1.26%
8 | COc1ccc2nc(NC(=O)C3CCCN(c4ncnc5c4nc4n5CCCCC4)C3)sc2c1 (stereo not shown) | 7.61%
9 | Cc1cc(C)cc(NC(=O)c2ccc(OC(F)F)cc2)c1 | 0.13%
10 | O=C(C[n+]1cc2sccc2c2cscc21)c1ccccc1 | -3.45%
11 | COc1cccc2[nH]ccc12 | -4.02%
12 | CC1CCCCN1CCNC(=O)CCCn1c(=O)c2cccn2c2cccnc21 (stereo not shown) | 7.86%
13 | CCOc1ccc(-c2nc3cc(N)ccc3o2)cc1 | -2.03%
14 | O=C1/C(=C\c2ccc(OCc3ccccc3)cc2)N2CCC1CC2 | -6.78%
15 | CC1=C(C(=O)Nc2cccnc2)C(c2cccs2)n2nc(-c3cccnc3)nc2N1 (stereo not shown) | -2.34%
16 | CCSc1nnc(NC(=O)C2CC2c2ccccc2)s1 (stereo not shown) | -1.1%
17 | Cc1[nH]nc2c1C(c1ccc(OCc3ccc(Cl)cc3Cl)cc1)C(C#N)=C(N)O2 (stereo not shown) | 1.52%
18 | Cc1ccc(CN2COc3ccc4c(oc(=O)c5ccccc54)c3C2)cc1 | 4.13%
19 | Cc1cc(O)n2ncnc2n1 | -2.41%
20 | O=C(NCc1ccco1)C1CCCN(S(=O)(=O)N2CCOCC2)C1 (stereo not shown) | 5.94%
21 | CNc1nc2c(C)cccn2c(=O)c1/C=N/CCO | 1.39%
22 | CCN1C(=O)C(CC(=O)NCCc2ccc(OC)cc2)N(CC)C1=O (stereo not shown) | 0.686%
23 | N#CC1=C(N)OC2=C(C(=O)c3ccccc3C2=O)C1c1ccc(C(F)(F)F)cc1 (stereo not shown) | 5.45%
24 | CC(=O)c1[nH]c(C(=O)O)c(C)c1C | 1.74%
25 | CSc1ccccc1NC(=O)C(C)NS(=O)(=O)c1ccc(Cl)cc1 (stereo not shown) | 2.01%

Row | SMILES | % Inhibition @ 10 uM
26 | Cc1cccc(C)c1NC(=O)CSc1ncnc2[nH]cnc12 | 0.907%
27 | CC(C)c1nc(NCCCO)c(C#N)c2c1CCCC2 | -4.28%
28 | Cc1cc(C)nc(SCC(=O)Nc2ccc(Cl)cc2)n1 | 0.661%
29 | CCOC(C(=O)OCCCN(CC)CC)(c1ccccc1)c1ccccc1 | 1.27%
30 | CCOC(=O)C1=C(CC)OC(N)=C(C#N)C1c1cc(Br)ccc1OC (stereo not shown) | 4.57%
31 | Cc1cc(C)n(C(=O)COc2ccccc2C)n1 | -5.28%
32 | Cn1c(=O)c2ncn(CC(=O)Nc3ccc(C(=O)NC4CCCCC4)cc3)c2n(C)c1=O | -4.56%
33 | O=C(Nc1ccc(Cl)cc1)N1CCCc2ccccc21 | -4.86%
34 | Cc1ccsc1/C=C1/SC(=O)N(CC(=O)Nc2cccc3ccccc23)C1=O | -14.4%
35 | Cc1ccc(-c2[nH]nc3c2C(c2ccsc2)C(C#N)=C(N)O3)cc1 (stereo not shown) | 2.32%
36 | CCCCOC(C(=O)OC(C)CN(C)C)(c1ccccc1)c1ccccc1 (stereo not shown) | -11.4%
37 | CCCc1nc2ccccc2n1CC(O)COc1ccc(C(C)=O)cc1 (stereo not shown) | -8.7%
38 | O=C1NC(=O)N(c2cccc3ccccc23)C(=O)/C1=C\c1ccc(O)cc1 | -2.42%
39 | COc1ccc(C(=N)NOC(=O)N2CCOCC2)cc1OC | 1.96%
40 | COc1ccc(C(=O)Nc2noc3ccccc23)c(OC)c1 | -2.85%
41 | CCC(NC(=O)NCc1ccc(Cl)cc1)(C(F)(F)F)C(F)(F)F | 0.475%
42 | CC(=O)Nc1ccc(S(=O)(=O)NC(C)C)cc1 | -4.35%
43 | CSC1=C(C#N)C(c2ccc(C)o2)CC(=O)N1 (stereo not shown) | 1.54%
44 | COc1ccc(C2CC(c3ccc(C)cc3)=NN2C(C)=O)cc1OC (stereo not shown) | -0.496%
45 | O=C(O)CCCC(=O)c1c[nH]c2ccccc12 | 5.3%
46 | O=C(CN1C(=O)c2ccccc2S1(=O)=O)Nc1ccc(Cl)cc1 | 4.83%
47 | CC1CCC(N2CCN(c3ccccc3F)CC2)C1 (stereo not shown) | -1.21%
48 | O=C(O)c1ccc(Oc2ccc3c(c2)C(=O)N(c2ccc(C(=O)O)cc2)C3=O)cc1 | 3.53%
49 | Cc1cccc(C)c1-n1nnnc1C1(Nc2cccc(O)c2)CCCC1 | -0.216%
50 | C=CCNC(=O)CN(c1cc(C)ccc1OC)S(=O)(=O)c1ccc(C)cc1 | 1.89%

Row | SMILES | % Inhibition @ 10 uM
51 | Cc1nc2ccccc2n1CCCCOc1ccc(Cl)cc1 | -0.551%
52 | COc1cccc(C2C(C#N)=C(N)OC3=C2C(=O)CC(c2ccco2)C3)c1OCc1ccc(F)cc1 (stereo not shown) | -1.06%
53 | Cc1ccc(N(CC(=O)N2CCN(c3ccccc3)CC2)S(=O)(=O)c2ccc(C)cc2)cc1 | 4.49%
54 | Cc1ccc(Cn2ccc(NC(=O)c3cc(-c4ccc(F)cc4)on3)n2)cc1 | -2.65%
55 | CN(C)CC(C)(C)CNC1CCC(C(C)(C)C)CC1 (stereo not shown) | 4.74%
56 | COc1ccc(/C=C2/SC(=O)N(CN(C)C)C2=O)c(OC)c1 | 17.3%
57 | COc1cccc(CN2CCN(Cc3cccc(Br)c3)CC2)c1 | -6.41%
58 | Cc1ccc2onc(CNC(=O)Nc3cccnc3)c2c1 | -4.63%
59 | Cc1ccc2ncc(C(=O)O)c(O)c2c1 | -2.48% and 3.82%
60 | CC(C)OCCCn1c(=O)c2ccccc2n2c(CCC(=O)N3CCC(C(N)=O)CC3)nnc12 | 1.73%
61 | Cc1cc(C)c(/C=C(\C#N)C(N)=S)c(C)c1 | -1.59%
62 | CC(C)(C)c1ccc(S(=O)(=O)/N=C2\C=C(SCC(=O)O)C(=O)c3ccccc32)cc1 | -1.69%
63 | Cc1nc2ccc(S(=O)(=O)NCC(=O)N3CCN(c4ccccn4)CC3)cc2s1 | 0.953%
64 | CCCSc1nnc2c(n1)OC1(CCCCC1)Nc1ccccc1-2 | 1.27%
65 | CCOC(=O)C1CCN(C(=O)c2ccc(C#CC(C)(C)O)cc2)CC1 | -4.93%
66 | COC(=O)CCC(=O)Nc1ccccc1NC(=O)CCC(=O)OC | -2.77%
67 | CC1CCC(NC(=O)C2c3ccccc3C(=O)N2CCc2ccc(Cl)cc2)CC1 (stereo not shown) | 1.76%
68 | C=CCSc1nc(=O)c2c(n1C)NC(=O)CC2c1ccc(O)cc1OC (stereo not shown) | -2.88%
69 | CCOC(=O)c1c(C)[nH]c(C)c1S(=O)(=O)NCCN(C)C1CCCCC1 | -0.873%
70 | COc1ccc(CCN2C(=O)CC(N3CCN(c4ccc(Cl)cc4)CC3)C2=O)cc1OC (stereo not shown) | 1.61%
71 | C/C=C/Cn1c(SCCc2ccccc2)nc2c1c(=O)[nH]c(=O)n2C | -4.48%
72 | CN(Cc1ccccc1)S(=O)(=O)c1ccc(NC(=O)COc2ccccc2)cc1 | 1.29%
73 | Cc1ccc(S(=O)(=O)N(CC(=O)N2CCN(C)CC2)c2ccc(F)cc2)cc1 | 10.6%
74 | N#C/C(=C/c1c[nH]c2ccccc12)C(=O)Nc1ccc(Cl)cc1 | -1.32%
75 | Cc1sc(NC(=O)C2C3C=CC(C3)C2C(=O)O)nc1-c1ccccc1 (stereo not shown) | -9.05%

Row | SMILES | % Inhibition @ 10 uM
76 | CCS(=O)(=O)C1=NN2C(=N)/C(=C\c3ccc(OC(C)c4ccccc4)c(OC)c3)C(=O)N=C2S1 (stereo not shown) | -1.54%
77 | O=C(O)COc1ccc(Cl)cc1C1C2=C(CCCC2=O)OC2=C1C(=O)CCC2 | -13.4%
78 | Cc1ccc2c(c1)OC(=O)CC2c1ccccc1 (stereo not shown) | -5.26%
79 | Cc1ccc(OCC(=O)Nc2cnc(O)nc2O)cc1 | 19.4%
80 | COCCNC(=O)c1ccc(CS(=O)(=O)Cc2ccc(Cl)cc2)o1 | 2.05%
81 | CN(C)c1ccc(NC(=O)COc2ccc(Br)cc2)cc1 | 0.746%
82 | COc1ccc(-n2c(C)cc(C=C3C(=O)c4ccccc4C3=O)c2C)cc1 | 5.37%
83 | COc1ccc(/C=C(/C#N)C(=O)Nc2ccc(Cl)cc2)c(C)c1 | 2.05%
84 | Cc1cc(C)nc(SCCS(=O)c2ccc(C(C)(C)C)cc2)n1 (stereo not shown) | 2.95%
85 | CCOC(=O)c1c(C)sc2c3c([nH]c12)CCCC3 | 9.19%
86 | Cc1ccc(S(=O)(=O)NC(C)C)cc1[N+](=O)[O-] | -4.35%
87 | CN1C(C)(C)CC(NC(=O)c2ccc(-n3cnnn3)cc2)CC1(C)C | 1.98%
88 | O=S(=O)(c1ccc(C2=CSC3=NCCN23)cc1)N1CCOCC1 | 1.72%
89 | Cc1ccc(CCNC(=O)Cn2nc(-c3ccccc3)ccc2=O)cc1 | -1.21%
90 | NC(=O)C1CCN(C(=O)c2cccc(C#Cc3ccccc3)c2)CC1 | 2.05%
91 | CCOC(=O)C1=C(C)NC(=O)CC1c1ccccc1 (stereo not shown) | -2.2%
92 | Cc1ccccc1-c1noc(-c2nnn(-c3ccccc3)c2N)n1 | 3.73%
93 | COc1ccccc1N1CCN(C(=O)c2ccc(-c3ccccc3)cc2)CC1 | 0.847%
94 | CC1=C(C(=O)Nc2ccc(F)cc2F)C(c2cccc(Cl)c2)C2=C(O)CCCC2=N1 (stereo not shown) | -0.99%
95 | Cc1ccc(N2C(=O)CC(N3CCN(c4ccccn4)CC3)C2=O)cc1 (stereo not shown) | 4.27%
96 | Oc1ccc(Br)cc1-c1ccnn1-c1ccccc1 | 0.196%
97 | CN1CCN(Cc2coc3c(Cl)cc(Cl)cc3c2=O)CC1 | -6.24%
98 | CC(C)CCn1c(=O)c2cccnc2n(Cc2ccc(Cl)cc2)c1=O | 3.13%
99 | COc1ccc(-c2cc(C(=O)O)c3c(C)[nH]nc3n2)cc1 | 0.0654%
100 | O=C(Nc1ccc(-c2cn3cccnc3n2)cc1)c1ccc(F)cc1 | -1.44%
